According to US11932625B2, “Inhibitors of cyclin-dependent kinase 12 (CDK12) and uses thereof” (Dana-Farber Cancer Institute, Inc., priority 2016, dated 2024):

How the values were obtained:
[1] = tested on: CDK12-cyclin K or CDK13-cyclin K complexes; conditions: Jurkat cells, 1 μM compound, 6 hrs, lysate with 1 μM THZ1-biotin
CDK7-cyclin H complexes = target: T1, CDK7-cyclin H complexes (Homo sapiens, UniProt P50613); test: THZ1-biotin pull-down from treated Jurkat cells, western blot for cyclin H; assay type: cell-based; conditions: 1 μM compound, 6 hrs, lysate with 1 μM THZ1-biotin
T1 construct: endogenous in cells; host or cells: Jurkat

CDK12 = CDK12 (Homo sapiens, UniProt Q9NYV4); test: Mass spectrum labeling of CDK12; assay type: binding; conditions: 5-fold excess of compound, 1 hour, room temperature
[2] = tested on: HAP1 CDK12 C1039S/CDK13 C1017S double mutants cells; test: Anti-proliferative activity, HAP1 CDK12 C1039S/CDK13 C1017S double mutant cells (CellTiter-Glo); assay type: cell-based; conditions: 72 hrs, mutant vs WT
Protocol: Select compounds described herein were evaluated for anti-proliferative activity. HAP1 WT and CDK12 C1039S/CDK13 C1017S double mutants cells were seeded at a density of 12,000 cells/well in 96-well plates. Twenty-four hours later cells were then treated with compound BSJ-01-175-1 in a 10-pt dose escalation format from 1 nM to 10 μM or DMSO control for 72 hrs. After 72 hrs, cells were assayed using CellTiter-Glo Luminescent Cell Viability Assay (Promega) to determine cell viability by measuring the amount of ATP present in each sample cell population, which is an indicator of cell metabolic activity. Results are graphed as fraction of the DMSO control at 72 hrs. All data points were performed in biological triplicate.

| Compound | Cyclin K pulldown with THZ1-biotin (binding of intracellular CDK12/13-cyclin K complexes) [1] | Cyclin H pulldown with THZ1-biotin (binding of intracellular CDK7-cyclin H complexes) (CDK7-cyclin H complexes) | Mass spectrum labeling of CDK12 (CDK12) | Sensitivity of HAP1 CDK12 C1039S/CDK13 C1017S mutant cells compared to control WT HAP1 cells ([2]; listed as BSJ-01-175-1) | Sensitivity of HAP1 CDK12 C1039S/CDK13 C1017S mutant cells compared to control WT HAP1 cells ([2]; listed as BSJ-1-0175-1) | Cyclin K pulldown with THZ1-biotin (binding of intracellular CDK12/13-cyclin K complexes) ([1]; listed as BSJ-01-175-1) |
| --- | --- | --- | --- | --- | --- | --- |
| C=CC(=O)Nc1ccc(O[C@@H]2CCC[C@@H](Nc3ncc(Cl)c(-c4c[nH]c5ccccc45)n3)C2)cc1 [BSJ-01-033, N-(4-((1R,3R)-3-(5-chloro-4-(1H-indol-3-yl)pyrimidin-2-ylamino)cyclohexyloxy)phenyl)acrylamide] | loss in cyclin K pulldown |  |  |  |  |  |
| CN(C)C/C=C/C(=O)Nc1ccc(N2CCC[C@@H](Nc3ncc(Cl)c(-c4c[nH]c5ccccc45)n3)C2)nc1 [BSJ-02-108, (R,E)-N-(6-(3-((5-chloro-4-(1H-indol-3-yl)pyrimidin-2-yl)amino)piperidin-1-yl)pyridin-3-yl)-4-(dimethylamino)but-2-enamide] | loss in cyclin K pulldown | loss in cyclin H pulldown |  |  |  |  |
| CN(C)C/C=C/C(=O)Nc1ccc(C(=O)Nc2cccc(Nc3ncc(Cl)c(-c4c[nH]c5ccccc45)n3)c2)cc1 [THZ1, reference compound] | binds intracellular CDK12-cyclin K, CDK13-cyclin K | binds |  |  |  |  |
| CN(C)C/C=C/C(=O)Nc1ccc(O[C@@H]2CCC[C@@H](Nc3ncc(Cl)c(-c4c[nH]c5ccccc45)n3)C2)cc1 [BSJ-01-175, (E)-N-(4-((1R,3R)-3-(5-chloro-4-(1H-indol-3-yl)pyrimidin-2-ylamino)cyclohexyloxy)phenyl)-4-(dimethylamino)but-2-enamide] | loss in cyclin K pulldown | not CDK7-cyclin H | able to label CDK12 | approximately half as sensitive | partially rescued | binds intracellular CDK12-cyclin K and CDK13-cyclin K complexes selectively |
| CN(C)C/C=C/C(=O)Nc1ccc(C(=O)N2CCC[C@@H](Nc3ncc(Cl)c(-c4c[nH]c5ccccc45)n3)C2)nc1 [BSJ-01-202, (E)-N-(6-(3-(5-chloro-4-(1H-indol-3-yl)pyrimidin-2-ylamino)piperidine-1-carbonyl)pyridin-3-yl)-4-(dimethylamino)but-2-enamide] | loss in cyclin K pulldown |  |  |  |  |  |
| C=CC(=O)Nc1ccc(N2CCC[C@@H](Nc3ncc(Cl)c(-c4c[nH]c5ccccc45)n3)C2)nc1 [BSJ-02-109, (R)—N-(6-(3-((5-chloro-4-(1H-indol-3-yl)pyrimidin-2-yl)amino)piperidin-1-yl)pyridin-3-yl)acrylamide] | loss in cyclin K pulldown |  |  |  |  |  |
| C=CC(=O)Nc1ccc(N2CCC[C@@H](Nc3ncc(Cl)c(-c4c[nH]c5ccccc45)n3)C2)cc1 [BSJ-02-139, (R)—N-(4-(3-((5-chloro-4-(1H-indol-3-yl)pyrimidin-2-yl)amino)piperidin-1-yl)phenyl)acrylamide] | loss in cyclin K pulldown | loss in cyclin H pulldown |  |  |  |  |

Read-outs that look alike come from different tables or passages of the source.
